# Measured values reported in publication PMC11995724, “Antibiotic target discovery by integrated phenotypic and activity-based profiling of electrophilic fragments” (Cell chemical biology, 2025).
# The campaign covered roughly 3,200 compounds. About 75 (2%) showed an effect of 50% or more. This is one part of the list.
# Test system: T1, S. aureus MSSA476
# T1 construct: MSSA476
# Design: species or system S. aureus MSSA476 (TSB) or V. cholerae SAD30 (LB); 384-well bacterial growth screen at 25 uM, OD600 relative to DMSO control
# Details: relative growth, OD600, TSB; 25 µM; inhibitor
row,Structure (SMILES),% of control remaining [%]
1,"COc1ccc(NC(=O)C(C#N)=Cc2cnc3c(C)cccn23)cc1 [9-L03, 2-cyano-N-(4-methoxyphenyl)-3-{8-methylimidazo[1,2-a]pyridin-3-yl}prop-2-enamide]",127.041
2,"C=CC(=O)NCCC1=CCCCCC1 [1-P21, N-[2-(cyclohept-1-en-1-yl)ethyl]prop-2-enamide]",79.8242
3,"O=C(CCc1ccccc1)NC1CCN(C(=O)CCl)CC1 [5-L08, N-[1-(2-chloroacetyl)piperidin-4-yl]-3-phenylpropanamide]",103.825
4,"CC(NC(=O)C(C#N)=Cc1ccc(C(F)(F)F)cc1)c1ccccc1 (centres unmarked) [9-L21, 2-cyano-N-(1-phenylethyl)-3-[4-(trifluoromethyl)phenyl]prop-2-enamide]",87.4906
5,"COc1cc(C=C(C#N)C(N)=O)cc(OC)c1OC [9-K13, 2-cyano-3-(3,4,5-trimethoxyphenyl)prop-2-enamide]",97.0787
6,"O=C(CCl)Nc1cc(-c2ccc3c(c2)CCC3)nn1-c1ccccc1 [6-J10, 2-chloro-N-[3-(2,3-dihydro-1H-inden-5-yl)-1-phenyl-1H-pyrazol-5-yl]acetamide]",102.439
7,"O=C(CCl)NCc1ccc(Cl)c(C(F)(F)F)c1 [7-D22, 2-chloro-N-{[4-chloro-3-(trifluoromethyl)phenyl]methyl}acetamide]",72.8414
8,"CC(C)NC(=O)C(C#N)=Cc1ccccc1 [8-L05, 2-cyano-3-phenyl-N-(propan-2-yl)prop-2-enamide]",128.465
9,"O=C(CCl)Nc1ccccc1C(=O)NCc1ccccc1 [4-C03, N-benzyl-2-(2-chloroacetamido)benzamide]",82.7061
10,"O=C(CCl)NCC(=O)N(c1ccccc1)c1ccccc1 [7-B12, 2-chloro-N-[(diphenylcarbamoyl)methyl]acetamide]",97.3312
11,"C=CC(=O)N(C)CC(=O)N1CCOC(c2ccccc2Cl)C1 (centres unmarked) [2-J04, N-{2-[2-(2-chlorophenyl)morpholin-4-yl]-2-oxoethyl}-N-methylprop-2-enamide]",110.009
12,"CCN(CC(=O)NC1CCS(=O)(=O)C1)C(=O)CCl (centres unmarked) [4-I19, 2-chloro-N-{[(1,1-dioxo-1lambda6-thiolan-3-yl)carbamoyl]methyl}-N-ethylacetamide]",127.68
13,"CC(Cl)C(=O)N[C@@H]1CCc2c(C#N)cccc21 (stereo partly drawn) [6-P14, 2-chloro-N-[(1R)-4-cyano-2,3-dihydro-1H-inden-1-yl]propanamide]",122.927
14,"N#CC(=Cc1ccccc1Cl)C(=O)Nc1cccc2ncccc12 [8-C15, 3-(2-chlorophenyl)-2-cyano-N-(quinolin-5-yl)prop-2-enamide]",119.17
15,"O=C(CCl)c1ccoc1 [10-O09, 2-chloro-1-(furan-3-yl)ethan-1-one]",115
16,"N#CC(C(=O)Nc1ccccc1)=C1NCCCN1 [8-H10, 2-cyano-2-(1,3-diazinan-2-ylidene)-N-phenylacetamide]",108.88
17,"CC(Cl)C(=O)NCCc1cn(C)nn1 (centres unmarked) [7-A14, 2-chloro-N-[2-(1-methyl-1H-1,2,3-triazol-4-yl)ethyl]propanamide]",95.1334
18,"Cc1ccc(N2C(=O)C=CC2=O)c([N+](=O)[O-])c1 [10-N13, 1-(4-methyl-2-nitrophenyl)-2,5-dihydro-1H-pyrrole-2,5-dione]",82.8125
19,"C=CC(=O)NCC1CCN(S(=O)(=O)C(F)(F)F)CC1 [1-A03, N-[(1-trifluoromethanesulfonylpiperidin-4-yl)methyl]prop-2-enamide]",117.099
20,"C=CC(=O)N(Cc1ccccc1)Cc1ccccc1 [1-P04, N,N-dibenzylprop-2-enamide]",86.8571
